PubChem BioAssay AID504333 (National Center for Advancing Translational Sciences (NCATS), 2011)
In all, about 360,000 compounds went through this assay and about 16,000 (4.4%) were called active. This list was built around the results that the source calls inconclusive (neither active nor inactive); the mix of calls is not that of the screen. The call rests on the fitted dose curve; in most records, active means well fitted inhibition curve with a large enough effect; inconclusive means small, poorly fitted or top-dose-only effect; inactive means no such curve, though single readings can be large or run the other way. A potency beside an inconclusive call is a rough fit, not a confirmed value.

These compounds were tested against Bromodomain adjacent to zinc finger domain protein 2B (Homo sapiens) (UniProt Q9UIF8) (assay: qHTS Assay for Inhibitors of BAZ2B). Settings: AlphaScreen BAZ2B-H3K14Ac peptide displacement; activity change, negative = inhibition: at 114 µM (top of the series).
Chain of UniProt Q9UIF8 (Q9UIF8 whole entry, looked up, the tested form may be a part): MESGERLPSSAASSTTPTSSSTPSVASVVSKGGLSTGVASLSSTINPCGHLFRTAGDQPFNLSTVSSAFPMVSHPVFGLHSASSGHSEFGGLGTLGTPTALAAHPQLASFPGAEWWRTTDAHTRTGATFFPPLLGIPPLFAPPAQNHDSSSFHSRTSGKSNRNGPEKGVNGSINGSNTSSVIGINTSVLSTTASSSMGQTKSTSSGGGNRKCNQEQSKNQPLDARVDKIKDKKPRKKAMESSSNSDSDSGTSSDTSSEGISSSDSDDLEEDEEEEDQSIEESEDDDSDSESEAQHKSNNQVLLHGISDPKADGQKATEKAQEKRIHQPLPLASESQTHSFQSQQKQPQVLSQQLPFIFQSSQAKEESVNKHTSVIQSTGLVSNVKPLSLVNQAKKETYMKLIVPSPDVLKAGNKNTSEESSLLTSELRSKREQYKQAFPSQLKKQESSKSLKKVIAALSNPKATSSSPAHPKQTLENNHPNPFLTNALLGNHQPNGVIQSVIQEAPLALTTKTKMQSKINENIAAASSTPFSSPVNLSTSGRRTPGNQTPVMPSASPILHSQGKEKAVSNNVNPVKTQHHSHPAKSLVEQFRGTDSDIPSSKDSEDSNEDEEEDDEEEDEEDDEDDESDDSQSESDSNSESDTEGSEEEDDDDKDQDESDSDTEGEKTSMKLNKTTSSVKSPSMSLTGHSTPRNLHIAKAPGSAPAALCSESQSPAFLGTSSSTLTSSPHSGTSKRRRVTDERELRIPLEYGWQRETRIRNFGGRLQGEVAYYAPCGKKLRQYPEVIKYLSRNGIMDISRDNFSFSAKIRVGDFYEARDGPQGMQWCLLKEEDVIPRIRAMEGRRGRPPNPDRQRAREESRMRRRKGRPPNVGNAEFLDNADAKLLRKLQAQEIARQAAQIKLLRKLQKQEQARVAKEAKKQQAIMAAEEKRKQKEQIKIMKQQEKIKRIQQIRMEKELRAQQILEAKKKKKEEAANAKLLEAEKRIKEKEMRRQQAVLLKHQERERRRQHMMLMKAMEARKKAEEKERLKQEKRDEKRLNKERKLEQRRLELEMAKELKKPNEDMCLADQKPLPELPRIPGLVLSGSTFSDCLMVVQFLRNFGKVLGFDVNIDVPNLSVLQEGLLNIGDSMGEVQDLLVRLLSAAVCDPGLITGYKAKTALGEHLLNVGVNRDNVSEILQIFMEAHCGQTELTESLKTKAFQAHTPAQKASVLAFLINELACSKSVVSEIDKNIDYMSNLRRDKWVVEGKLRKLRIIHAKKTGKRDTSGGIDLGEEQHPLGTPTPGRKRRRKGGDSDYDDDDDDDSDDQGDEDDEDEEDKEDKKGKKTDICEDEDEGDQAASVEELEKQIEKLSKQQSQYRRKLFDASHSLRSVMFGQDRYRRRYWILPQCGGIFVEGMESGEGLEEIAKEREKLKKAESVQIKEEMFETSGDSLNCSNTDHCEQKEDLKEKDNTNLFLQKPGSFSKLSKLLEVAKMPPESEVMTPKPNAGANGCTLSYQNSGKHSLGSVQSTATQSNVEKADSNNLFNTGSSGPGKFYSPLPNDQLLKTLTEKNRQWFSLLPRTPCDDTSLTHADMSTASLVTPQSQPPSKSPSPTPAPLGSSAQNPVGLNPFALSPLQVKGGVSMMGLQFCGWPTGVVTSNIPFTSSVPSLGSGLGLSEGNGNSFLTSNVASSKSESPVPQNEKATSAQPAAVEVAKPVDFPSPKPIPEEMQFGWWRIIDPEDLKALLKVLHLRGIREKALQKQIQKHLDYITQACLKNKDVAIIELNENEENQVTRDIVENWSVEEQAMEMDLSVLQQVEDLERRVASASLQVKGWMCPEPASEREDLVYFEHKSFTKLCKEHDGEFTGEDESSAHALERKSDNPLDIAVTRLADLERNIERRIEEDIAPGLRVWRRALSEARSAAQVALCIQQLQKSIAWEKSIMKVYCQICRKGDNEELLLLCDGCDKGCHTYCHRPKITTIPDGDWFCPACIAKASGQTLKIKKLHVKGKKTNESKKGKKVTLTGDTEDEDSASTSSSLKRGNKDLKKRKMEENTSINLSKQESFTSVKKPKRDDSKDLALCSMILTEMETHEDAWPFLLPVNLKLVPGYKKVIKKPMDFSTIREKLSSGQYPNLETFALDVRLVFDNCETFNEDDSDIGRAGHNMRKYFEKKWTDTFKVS
Method in brief: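 BAZ2B 50 nM plus b-H3(5-23)K14Ac 50 nM, PBS pH 7.4/0.01% Tween-20, 30 min RT; compound added (max 110 uM), 30 min RT; streptavidin donor/Ni-chelate acceptor beads 10 ug/mL final, 20 min dark; AlphaScreen read.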
Further: nearly all actives have a fitted effect of over 60% in size.
On the % scale 0 is the no-effect control and ±100 the full control effect; potency means the concentration at half of the fitted maximal effect; tags describe the fitted curve by direction and shape.

| SMILES | Potency | activity change, negative = inhibition |
| --- | --- | --- |
| CCN(CC)c1ccc(NC(=O)COc2ccc(C)cc2)cc1 | inconclusive: 31.6 µM [inhibitor, full curve, poor fit] |  |
| O=C(NC1CCCCCC1)C1CCN(C(=O)N2CCOc3ccc(Cl)cc32)CC1 | inconclusive: 35.5 µM [inhibitor, partial curve] |  |
| CC(=O)c1c(C)[nH]c(C(=O)COC(=O)COc2ccccc2F)c1C | inconclusive: 79.4 µM [inhibitor, single point] |  |
| NC(=O)CC(NC(=O)c1cccc(Br)c1)c1ccc(N2CCN(c3ccccn3)CC2)c([N+](=O)[O-])c1 (centres undefined) | inconclusive: 50.1 µM [inhibitor, partial curve] |  |
| Cc1ccc(S(=O)(=O)N2[C@@H](c3ccc(Cl)cc3)C(C(=O)O)=CC[C@H]2c2ccc(C(C)C)cc2)cc1 | active: 79.4 µM |  |
| Cc1ccc(CNC(=O)c2sc3nc(C)cc(C)c3c2-n2cccc2)cc1 | inconclusive: 89.1 µM [inhibitor, single point] |  |
| O=S(=O)(c1cccs1)N1CN(C2CCCCC2)c2nc3ccccc3nc21 | inconclusive: 70.8 µM [inhibitor, single point] |  |
| CN(C)c1ccc(Nc2cc(Cl)ncn2)cc1 | inconclusive: 79.4 µM [inhibitor, single point] |  |
| C=C(C)COc1ccc2c(CC)cc(=O)oc2c1 |  | inactive: 70.8% |
| Oc1cc(O)c2c(c1)O[C@H](c1ccc(O)c(O)c1)[C@@H](O)C2 |  | inactive: -0.266% |
| c1ccc(-c2nc3ccccn3c2NCc2ccc3c(c2)OCO3)cc1 | inconclusive: 50.1 µM [inhibitor, partial curve] |  |
| O=C1/C(=C\c2ccco2)SC(=S)N1c1ccc(O)cc1 | active: 35.5 µM |  |
| O=CN1CC(=O)N(c2ccccc2)c2c([nH]c3ccccc23)C1 | inconclusive: 89.1 µM [inhibitor, single point] |  |
| O=S(=O)(Nc1cccc2c1ccc1cccn12)c1cccs1 | inconclusive: 89.1 µM [inhibitor, single point] |  |
| Cc1cc2ccccc2nc1SCC(=O)NC1CCCCC1 | inconclusive: 70.8 µM [inhibitor, single point] |  |
| COc1ccc(N2CCN(Cc3cc(=O)c(OCC(=O)NC4CCCC4)co3)CC2)cc1 |  | inactive: 8.68% |
| Cc1c(CCO)c(=O)n(-c2ccccc2)n1S(=O)(=O)c1ccc(Cl)cc1 | inconclusive: 89.1 µM [inhibitor, single point] |  |
| CCCOc1ccc(-c2nc(C#N)c(NCC3CCCO3)o2)cc1 (centres undefined) | active: 50.1 µM |  |
| Cn1nc(-c2ccc(OCC(=O)Nc3cccc(C(F)(F)F)c3)cc2)c2ccccc2c1=O |  | inactive: -30.7% |
